The record followed here is paper PMC6602471.

The other results are listed elsewhere or left out. At the low end of the ranking, values are background and their order means little.

In this assay the target is T1, ELK1 (UniProt P19419).
T1 sequence: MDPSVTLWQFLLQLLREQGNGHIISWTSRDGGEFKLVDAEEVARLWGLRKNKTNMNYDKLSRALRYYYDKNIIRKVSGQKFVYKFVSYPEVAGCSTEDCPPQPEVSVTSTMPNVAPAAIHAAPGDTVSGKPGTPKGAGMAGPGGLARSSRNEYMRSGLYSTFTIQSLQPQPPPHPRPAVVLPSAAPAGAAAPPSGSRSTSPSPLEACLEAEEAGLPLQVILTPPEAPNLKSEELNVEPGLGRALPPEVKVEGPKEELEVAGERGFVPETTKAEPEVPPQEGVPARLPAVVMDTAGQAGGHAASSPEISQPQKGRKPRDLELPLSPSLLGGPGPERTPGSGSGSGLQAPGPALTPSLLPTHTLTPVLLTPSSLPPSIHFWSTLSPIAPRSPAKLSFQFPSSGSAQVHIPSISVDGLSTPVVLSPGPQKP
Kind of assay: custom PBM. The note with it: custom protein-binding microarray; buffer, salt, pH and temperature not stated; high values mean tight binding; double strand, one strand shown.
Turning to “GCTGCTGCGGTGCATACCCCACCGGATGTGTCCCCGGTCTTGATTCGCTTGACGCTGCTG”, the binding signal (log fluorescence intensity) stood at 9.8. To “TACTGACTTATATATGCGAATGCACATCAATAGACCGTCTTGATTCGCTTGACGCTGCTG” belongs 8.86. To “GGAAAAAGGCCCAGGGTAACACCGGAATTGGGCTTAGTCTTGATTCGCTTGACGCTGCTG” belongs 9.46.

Consider “CGGAAGTGGCGTAAACGTCGGATATCCGGTTCTTCTGTCTTGATTCGCTTGACGCTGCTG”, for which the binding signal (log fluorescence intensity) came out at 12.1.

Take “GTGTATAGGATCCCATCCAACACACGTGTTAAAACGGTCTTGATTCGCTTGACGCTGCTG”: the binding signal (log fluorescence intensity) was found to be 8.76. With “CTGGGACTTGACCCAACTCTGCCACGTGGGGCGTTTGTCTTGATTCGCTTGACGCTGCTG”, the binding signal (log fluorescence intensity) came out at 8.94.

For the sequence “TAAAGGGAAGTCGGTTGTGGTAGTTCCGGGTATTAAGTCTTGATTCGCTTGACGCTGCTG”, the binding signal (log fluorescence intensity) was found to be 11.8. To “TTCGGCTACCAGCTCCACCCACTTCAGGCCTTGTAGGTCTTGATTCGCTTGACGCTGCTG” belongs 8.78; to “GATTAATTTCTGCCCTTATTCGCACGTGCTATAACAGTCTTGATTCGCTTGACGCTGCTG”, 8.81; to “CAGCATAGGACTTCTTCCCTGAAGCAAATGATAACCGTCTTGATTCGCTTGACGCTGCTG”, 8.83. To “TCCGGCTACCAGCTCCACCCACTTCAGGCCTGGTAGGTCTTGATTCGCTTGACGCTGCTG” belongs 8.82. To “CACAATTGTTACAGTAATGTAGCACGCGTAACTCCTGTCTTGATTCGCTTGACGCTGCTG” belongs 8.91. On to “TCCGGCTACCAGCTCCATCCACTTCAGGCCTTGTAGGTCTTGATTCGCTTGACGCTGCTG”, for which the binding signal (log fluorescence intensity) is 8.84. For the sequence “CAGCATAGGGCTTCTTCCCTGAAGCAATTGATAACCGTCTTGATTCGCTTGACGCTGCTG”, the binding signal (log fluorescence intensity) is 8.86. Then “GCTGCTGCGGTGCATACCCCACCGGACGTGACCCCGGTCTTGATTCGCTTGACGCTGCTG”, with 9.54; and “CACAATTATTACAGTAATGTAGCACGCGTAACTCCTGTCTTGATTCGCTTGACGCTGCTG”, with 8.86; and “CGGAAGTGTCGTAAACGTCGGATATCCAGTTCTTCTGTCTTGATTCGCTTGACGCTGCTG”, with 9.15. Then “TACTGACTTATAAATGCGAATGCACATGAATAGACCGTCTTGATTCGCTTGACGCTGCTG”, with 8.85; and “GTGTATAGGATCCCATCCAACACACGAGTTAAAATGGTCTTGATTCGCTTGACGCTGCTG”, with 8.83; and “GGAAAAAGGCCCAGGGTAACACCGTAAGTGGGCTTAGTCTTGATTCGCTTGACGCTGCTG”, with 8.95. Take “CGGAAGTGTAGTAAACGTCGGATATCCGGTTCTTCTGTCTTGATTCGCTTGACGCTGCTG”: the binding signal (log fluorescence intensity) is 12.1. To “CTGGGACTTGACCAAACTCTGCCACGTGGGTCGTTTGTCTTGATTCGCTTGACGCTGCTG” belongs 8.97.

On to “TCCGGCTACCAGCTCCACCCACTTCATGCCTTGTAGGTCTTGATTCGCTTGACGCTGCTG”, for which the binding signal (log fluorescence intensity) was 8.92.

For “GTGTATAGGATCCCATCCAACACACGTGTTTAAATGGTCTTGATTCGCTTGACGCTGCTG”, the binding signal (log fluorescence intensity) came to 8.82. Then “TACTGACTTATATATGCGAATGCACCTGAATAGACCGTCTTGATTCGCTTGACGCTGCTG”, with 8.86. With “CAGCATAGGACTTCTTCCCTGAAGCACTTGATAACCGTCTTGATTCGCTTGACGCTGCTG”, the binding signal (log fluorescence intensity) stood at 8.85. To “GCTGCTGCGGTGTATACCCCACCGGATGTGACCCCGGTCTTGATTCGCTTGACGCTGCTG” belongs 10.2; to “GTGTATAGGATCCCATCCAACCCACGTGTTAAAATGGTCTTGATTCGCTTGACGCTGCTG”, 8.73.

As for “GTGTATAGGATCCCATCCATCACACGTGTTAAAATGGTCTTGATTCGCTTGACGCTGCTG”, the binding signal (log fluorescence intensity) stood at 8.84. To “TCCGGCTAGCAGCTCCACCCACTTCAGGCCTTGTAGGTCTTGATTCGCTTGACGCTGCTG” belongs 8.7.

On to “TCCGGCTACCAGCTCCACCCACTTCAGGCCGTGTAGGTCTTGATTCGCTTGACGCTGCTG”, for which the binding signal (log fluorescence intensity) came out at 8.89. To “GCTGCTGCCGTGCATACCCCACCGGATGTGACCCCGGTCTTGATTCGCTTGACGCTGCTG” belongs 10.4; to “GGAAAAAGGCCCAGGGTATCACCGGAAGTGGGCTTAGTCTTGATTCGCTTGACGCTGCTG”, 10.9; to “TGTTGGGTAAGGGAATGTAGATCACGTGAATGAAAAGTCTTGATTCGCTTGACGCTGCTG”, 8.84. Then “CACAATTTTTACAGTATTGTAGCACGCGTAACTCCTGTCTTGATTCGCTTGACGCTGCTG”, with 8.73; and “GCTGCTGCGGTGCATACCACACCGGATGTGACCCCGGTCTTGATTCGCTTGACGCTGCTG”, with 10.3. Then “GATTAATTTCTGCCCTTATTCGCTCGTGCCATAACAGTCTTGATTCGCTTGACGCTGCTG”, with 8.78; and “CTGGGACTTGACCCAACTCTGCCACGTGTGTCGTTTGTCTTGATTCGCTTGACGCTGCTG”, with 8.8; and “GCTGCTGCGGTGCATACCCCACCGGATGGGACCCCGGTCTTGATTCGCTTGACGCTGCTG”, with 9.27. On to “GTGTATAGGAACCCATCCAACACACGTGTTAAAATGGTCTTGATTCGCTTGACGCTGCTG”, for which the binding signal (log fluorescence intensity) amounted to 8.93.

As for “GTGTATAGGATCCCATCAAACACACGTGTTAAAATGGTCTTGATTCGCTTGACGCTGCTG”, the binding signal (log fluorescence intensity) is 8.96. For the sequence “CGGAAGTGTCGTAAACGTCGGATCTCCGGTTCTTCTGTCTTGATTCGCTTGACGCTGCTG”, the binding signal (log fluorescence intensity) amounted to 9.32. To “CACAATTTTTAGAGTAATGTAGCACGCGTAACTCCTGTCTTGATTCGCTTGACGCTGCTG” belongs 8.9. Turning to “CAGCATAGGACTTCTTCCCTGAAGCAATTGATAACCGTCTTGATTCGCTTGACGCTGCTG”, the binding signal (log fluorescence intensity) came out at 8.91.

“GGAAAAAGGCCAAGGGTAACACCGGAAGTGGGCTTAGTCTTGATTCGCTTGACGCTGCTG”: the binding signal (log fluorescence intensity) came out at 11. Then “CAGCATAGGACTTCTTCCCTGAAGCTATTGATAACCGTCTTGATTCGCTTGACGCTGCTG”, with 8.84; and “GATTAATTTCTGCCCTTATTCGCGCGTGCCATAACAGTCTTGATTCGCTTGACGCTGCTG”, with 8.86. To “TAAAGGGAAGGCGGTTGTGGTAGTTCCGGGTATTAAGTCTTGATTCGCTTGACGCTGCTG” belongs 11.5. As for “TCCGGCTAACAGCTCCACCCACTTCAGGCCTTGTAGGTCTTGATTCGCTTGACGCTGCTG”, the binding signal (log fluorescence intensity) worked out at 8.89. To “TACTGACTTATATATGGGAATGCACATGAATAGACCGTCTTGATTCGCTTGACGCTGCTG” belongs 9.03; to “CGGAAGTGTCGTAAACCTCGGATATCCGGTTCTTCTGTCTTGATTCGCTTGACGCTGCTG”, 12.2; to “TAAAGGGAAGACGCTTGTGGTAGTTCCGGGTATTAAGTCTTGATTCGCTTGACGCTGCTG”, 11.
